Laboratory results as given in PubChem BioAssay AID488969 (Vanderbilt High Throughput Screening Facility, 2010).
In all, about 110,000 compounds were measured (“z-score”: median about -0.1, highest 2% from about 2 on). This is one part of the list. Activity calls are given as the source filed them.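 How the source made its calls: active means z-score in the third read window above 3 or below -3; inactive means the rest.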

molecular target: Metabotropic glutamate receptor 8 (Rattus norvegicus) (UniProt P70579); test: rat mGluR8 modulators via GIRK flux, primary screen, cell-based, thallium flux, HTS (AID 488969); details: HEK293 rat mGluR8, GIRK (G protein-gated inwardly rectifying potassium channel) thallium flux, FluoZin2; at 10 µM; stronger effect = higher value; submaximal glutamate (EC20) added with thallium
UniProt P70579, sequence (P70579 whole entry, looked up): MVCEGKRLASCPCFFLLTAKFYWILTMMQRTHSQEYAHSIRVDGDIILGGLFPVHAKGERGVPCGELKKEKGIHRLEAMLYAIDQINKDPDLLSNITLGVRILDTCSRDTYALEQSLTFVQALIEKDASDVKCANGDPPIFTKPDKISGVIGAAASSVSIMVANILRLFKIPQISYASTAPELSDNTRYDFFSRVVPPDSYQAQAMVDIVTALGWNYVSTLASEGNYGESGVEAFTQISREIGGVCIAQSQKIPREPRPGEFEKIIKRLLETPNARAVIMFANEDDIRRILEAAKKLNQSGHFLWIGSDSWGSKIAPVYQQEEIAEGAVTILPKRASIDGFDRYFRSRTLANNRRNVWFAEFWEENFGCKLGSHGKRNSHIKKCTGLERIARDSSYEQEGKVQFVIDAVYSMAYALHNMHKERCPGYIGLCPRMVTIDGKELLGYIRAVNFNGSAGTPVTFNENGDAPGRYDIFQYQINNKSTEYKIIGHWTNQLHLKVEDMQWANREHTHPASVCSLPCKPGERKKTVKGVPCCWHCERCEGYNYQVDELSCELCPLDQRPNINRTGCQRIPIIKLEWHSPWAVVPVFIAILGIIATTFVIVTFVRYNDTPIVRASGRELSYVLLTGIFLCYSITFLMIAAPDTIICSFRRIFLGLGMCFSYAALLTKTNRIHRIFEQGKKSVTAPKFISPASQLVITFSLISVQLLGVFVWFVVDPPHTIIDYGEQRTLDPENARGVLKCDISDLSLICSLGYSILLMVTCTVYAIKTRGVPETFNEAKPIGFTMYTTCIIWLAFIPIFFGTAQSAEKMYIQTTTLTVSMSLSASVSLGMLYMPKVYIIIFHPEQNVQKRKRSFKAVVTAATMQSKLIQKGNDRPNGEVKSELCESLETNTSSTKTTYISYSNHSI

Q: `O=C(Nc1ccc(N2CCCCC2)cc1)c1cccnc1` was tested. Which z-score did it give?
A: -0.0608

Q: For `O=C(NC1CCCCCC1)c1ccc(S(=O)(=O)NCc2ccco2)cc1`, which z-score is on record?
A: -0.158

Q: For `CCc1ccc(NC(=O)Cn2nc(C(F)(F)F)c3c2CCC3)cc1`, which z-score is on record?
A: 0.078

Q: `Cc1c(C(=O)Oc2ccc(-c3cnc4ccccc4n3)cc2)cccc1[N+](=O)[O-]` was tested. Which z-score did it give?
A: 0.413

Q: How did the z-score turn out when `Cc1ccc(-n2ncc3c(N4CCC5(CC4)OCCO5)ncnc32)c(C)c1` was run?
A: -0.17

Q: Which z-score does the source give for `Cn1nnnc1SCc1cc(=O)n2ccsc2n1` here?
A: -0.651

Q: For `Cc1c(Nc2nc(-c3ccc(Cl)cc3)cs2)c(=O)n(-c2ccccc2)n1C`, which z-score is on record?
A: -2.12

Q: How did the z-score turn out when `CC1(C)N(OCc2ccccc2)C(=O)C(=O)N(OCc2ccccc2)C1(C)C` was run?
A: -0.0501

Q: For `CN(C)CCCn1c(SCC(=O)N2c3ccccc3Sc3ccccc32)nc2ccccc2c1=O`, which z-score is on record?
A: -0.356

Q: Which z-score does the source give for `CN(CCO)c1nc(N)c2c(N)nc3c(c2c1C#N)CC(=O)N3C1CCCC1` here?
A: -0.233

Q: With `O=C(NCc1ccco1)c1n[nH]c(=O)c2ccccc12` as the molecule, how does the z-score read?
A: 1.16

Q: With `O=C(COC(=O)c1ccc(Cl)c(S(=O)(=O)N2CCc3ccccc3C2)c1)Nc1ncc(Cl)cc1Cl` as the molecule, how does the z-score read?
A: 0.139

Q: With `CCOn1c(SC(C)C)nc2ccccc2c1=O` as the molecule, how does the z-score read?
A: 1.92

Q: How did the z-score turn out when `CCOC(=O)CCc1c(C)c(C#N)c2nc3ccccc3n2c1-n1ccnc1` was run?
A: 0.103

Q: With `CCN1CCCC1CNC(=O)CSCc1nc(-c2ccccc2C)oc1C` (centres undefined) as the molecule, how does the z-score read?
A: active: 4.01

Q: For `Cc1c(NC(=O)C(C)Oc2ncnc3ccccc23)c(=O)n(-c2ccccc2)n1C` (centres undefined), which z-score is on record?
A: -0.431

Q: For `COc1cc(NC(=O)c2ccc(Cl)cc2)c(OC)cc1Cl`, which z-score is on record?
A: 1.1

Q: For `O=C(c1cccc(S(=O)(=O)N2CCOCC2)c1)N1CCCCCC1`, which z-score is on record?
A: 0.38

Q: For `O=C(NC(=S)N1CCN(c2c(Cl)cccc2[N+](=O)[O-])CC1)c1cccs1`, which z-score is on record?
A: active: -4.63

Q: `CCCS(=O)(=O)N1CCCC(C(=O)NCC2CCCO2)C1` (centres undefined) was tested. Which z-score did it give?
A: 0.0279

Q: How did the z-score turn out when `COCCCNC(NC(=O)c1ccc(Br)cc1)C(Cl)(Cl)Cl` (centres undefined) was run?
A: -0.186

Q: Which z-score does the source give for `COc1ccc(C(=O)C2CCN(S(=O)(=O)c3ccc4c(c3)OCCO4)CC2)cc1` here?
A: 0.21

Q: With `O=C(O)c1ccccc1NN=C1CCCCC1` as the molecule, how does the z-score read?
A: 0.125

Q: With `COc1ccc2nc3oc(C(=O)N4CCCCC4)cc3cc2c1` as the molecule, how does the z-score read?
A: -0.277

Q: `N#C/C(=C\c1cn[nH]c1-c1ccccc1)C(=O)NC1CCCCCC1` was tested. Which z-score did it give?
A: -0.228

Q: With `O=C(Cc1ccc(F)cc1)OCC(=O)c1cc2ccccc2o1` as the molecule, how does the z-score read?
A: -0.195

Q: With `CC1=CC(c2ccccc2)n2nc(N3C(=O)c4ccccc4C3=O)nc2N1` (centres undefined) as the molecule, how does the z-score read?
A: -0.139

Q: How did the z-score turn out when `Cc1cc2oc(=O)cc(C)c2cc1NC(=O)CCC(=O)O` was run?
A: 1.3

Q: With `CC(=O)c1c(N2CCN(C(=O)C3CCCO3)CC2)nc(=S)n(-c2ccccc2)c1C` (centres undefined) as the molecule, how does the z-score read?
A: -0.0325

Q: With `COc1ccc(-c2cc3ccccc3n2CC(O)CNCCO)cc1` (centres undefined) as the molecule, how does the z-score read?
A: 0.0517

Q: For `N#Cc1ccc(COC(=O)Cn2nnc(-c3ccccc3)n2)cc1`, which z-score is on record?
A: -0.843

Q: With `O=C(CCS(=O)(=O)c1ccccc1)Nc1nc(-c2ccccn2)cs1` as the molecule, how does the z-score read?
A: -0.105

Q: Which z-score does the source give for `Cc1cccc(C(=O)Oc2ccc(/C=N/NC(=O)c3ccccc3O)cc2)c1` here?
A: -0.163

Q: `C/C(=N/Nc1nc(-c2ccc(Cl)cc2)cs1)c1cccs1` was tested. Which z-score did it give?
A: 0.187

Q: Which z-score does the source give for `C=CCc1c(C)nc(N)[nH]c1=O` here?
A: 0.0155

Q: Which z-score does the source give for `COc1cccc(-c2cc(C(F)(F)F)n3nc(N)nc3n2)c1` here?
A: -0.386

Q: Which z-score does the source give for `Cc1[nH]n(-c2ccccc2)c(=O)c1C(C[N+](=O)[O-])c1ccc(Br)cc1` (centres undefined) here?
A: 0.135

Q: With `CCOc1ccc(C(=O)N(Cc2ccc(N(C)C)cc2)C2CCS(=O)(=O)C2)cc1` (centres undefined) as the molecule, how does the z-score read?
A: 0.0495

Q: How did the z-score turn out when `Cn1cccc1Cc1nnc(SCC(=O)NCC2CCCO2)n1CCc1ccccc1` (centres undefined) was run?
A: 0.779

Q: How did the z-score turn out when `CCOC(=O)C(CC)/C(C)=N/NC(=O)c1ccc([N+](=O)[O-])cc1` (centres undefined) was run?
A: -0.221

Q: With `COC(=O)c1sccc1NC(=O)CSc1cc(Cl)ccc1Cl` as the molecule, how does the z-score read?
A: -0.165

Q: `Cc1ccsc1C(=O)NC(C)c1ccc2c(c1)OCO2` (centres undefined) was tested. Which z-score did it give?
A: -0.314

Q: For `O=C1c2ccccc2CC1(Cc1ccccc1)Cc1ccccc1`, which z-score is on record?
A: -0.201

Q: `CC1(C)NC(=O)N(CCCOc2ccc(Br)cc2Cl)C1=O` was tested. Which z-score did it give?
A: -0.26

Q: How did the z-score turn out when `CC(C)N1C(=O)C2C(C(=O)NC3CCCCC3)C3C=CC2(O3)C1C(=O)NC1CCCC1` (centres undefined) was run?
A: -0.218

Q: How did the z-score turn out when `C/C(Cc1ccccc1)=N\NC(=O)CNC(=O)c1ccc(Br)cc1` was run?
A: -0.0251

Q: With `c1csc(-c2nn3c(C4COc5ccccc5O4)nnc3s2)c1` (centres undefined) as the molecule, how does the z-score read?
A: -0.697

Q: With `O=C(NNS(=O)(=O)c1ccc2ccccc2c1)C1CCN(Cc2ccccc2)CC1` as the molecule, how does the z-score read?
A: -0.161

Q: For `OCc1cn(-c2ccccc2)nc1-c1ccc(-c2nn(-c3ccccc3)cc2CO)cc1`, which z-score is on record?
A: 0.428

Q: Which z-score does the source give for `O=C(COC(=O)c1ccc(Br)cc1)NCc1ccccc1` here?
A: -0.417

Q: How did the z-score turn out when `O=C(c1cccc(COc2ccc(Cl)cc2Cl)c1)N1CCN(c2ccccn2)CC1` was run?
A: 0.679

Q: `O=C(OCCN(C1=NS(=O)(=O)c2ccccc21)c1ccccc1Cl)c1ccc(Cl)cc1` was tested. Which z-score did it give?
A: 0.0751

Q: Which z-score does the source give for `COc1cccc(/C=C2/CN(C)CC3=C2OC(N)=C(C#N)C3c2cccc(OC)c2)c1` (centres undefined) here?
A: -0.724

Q: For `Cc1ccc(CNC(=O)CN(c2cccc([N+](=O)[O-])c2)S(=O)(=O)c2ccccc2)cc1`, which z-score is on record?
A: -1.01

Q: Which z-score does the source give for `Clc1ccc(-c2csc3ncnc(Cl)c23)cc1` here?
A: 0.28

Q: `O=C(CN1CCC(Cc2ccccc2)CC1)NC(=O)NCc1ccccc1` was tested. Which z-score did it give?
A: 0.0382

Q: For `CCCc1[nH]nc2c1C(c1ccc(OC(=O)c3ccco3)cc1)C(C#N)=C(N)O2` (centres undefined), which z-score is on record?
A: 0.63

Q: Which z-score does the source give for `O=c1[nH]c(=O)n(Cc2ccccc2)c2nc(-c3ccc(Oc4ccc(F)cc4)c([N+](=O)[O-])c3)n(CCO)c12` here?
A: -0.038

Q: How did the z-score turn out when `CCCCN(C)C(=O)C1CCN(Cc2ccc(OCc3ccccc3)cc2)CC1` was run?
A: 0.414

Q: `CCCCn1c(C(C)O)nc2ccccc21` (centres undefined) was tested. Which z-score did it give?
A: -0.321

Q: Which z-score does the source give for `Cc1cc(C)n(C(=O)CNC(=O)COc2ccccc2)n1` here?
A: 0.214

Q: With `O=C(Nc1ccc2c(c1)CCC2)c1cccc(S(=O)(=O)N2CCN(c3ccccc3)CC2)c1` as the molecule, how does the z-score read?
A: -0.0939

Q: How did the z-score turn out when `Cc1ccc(N2C(N)=C(C#N)C(c3cccnc3)C3=C2CCCC3=O)cc1` (centres undefined) was run?
A: 1.05

Q: Which z-score does the source give for `O=C(O)CSc1c(-c2ccccc2)c2cc(Cl)ccc2[nH]c1=O` here?
A: -0.401

Q: With `O=C(c1ccc(Br)o1)N1CCN(c2ccc(F)cc2)CC1` as the molecule, how does the z-score read?
A: 0.331

Q: `Cc1nc2cc(NC(=O)N3CCCCC3)ccc2n1C` was tested. Which z-score did it give?
A: 0.994

Q: For `COc1cc2c(cc1NC(=S)NC(=O)/C=C/c1ccc(OC)c(OC)c1)oc1ccccc12`, which z-score is on record?
A: 0.372

Q: For `COc1ccc(C)c2sc(N3CCCC3)nc12`, which z-score is on record?
A: -0.788

Q: For `COc1cc(C)c(C)cc1S(=O)(=O)N1CCN(Cc2ccc3c(c2)OCO3)CC1`, which z-score is on record?
A: -0.615
